# According to the supplement of paper PMC3334620:
# The full ranking holds about 33,000 sequences; the median of “E-score (-0.5 to 0.5)” is about -0.056, and the highest 2% start at about 0.38. The list shows a part of the results.
# Biological target: Stb4 (UniProt P50104)
# Test: PBM E-score (8-mer binding enrichment) (E-score (-0.5 to 0.5)); higher = stronger / more preferred TF binding; most listed sequences are background and not binding sites
# Settings: protein concentration: 200 nM; construct: GST-DNA-binding domain
# Outline: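 Universal all-10-mer Agilent arrays, double-stranded by primer extension on fresh or once-stripped slides, were probed with about 100-200 nM GST-tagged yeast transcription factors made by PURExpress. Fluorescent anti-GST detected bound protein, and masliner normalised the scans. E-scores from the Universal PBM Analysis Suite were given to each ungapped eight-base word pooled with its reverse complement.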
row,Sequence,PBM E-score
1,AATGGTAT,-0.135
2,AGACACGC,0.0426
3,GTAACTCA,-0.151
4,GAGACGCC,0.0569
5,ACCAAATG,-0.0369
6,ACCCTAGT,-0.302
7,CGAAACAA,0.149
8,GTCATGAC,-0.0706
9,AAGAGCGA,-0.264
10,GCAATCCA,-0.0919
11,GAAACTCA,0.0867
12,CGTGGCCC,-0.0532
13,AATCTCGA,-0.0861
14,CGGATAAG,0.41
15,CGACTGCG,0.0315
16,GGGGTGCA,0.0814
17,ACCATATA,-0.114
18,ACTCGGAA,0.47
19,ACAACCGC,0.0664
20,TTCAGCAA,-0.302
21,CCCCAATC,-0.165
22,TATCGGCA,0.326
23,ATTTCGAC,-0.121
24,GGGCCCAC,-0.0293
25,ACCGCTCA,-0.0664

row,Sequence,PBM E-score
1,AATTTGAT,-0.106
2,CGTCGCTC,-0.0193
3,CGGGAGTA,0.374
4,GCAACAGC,-0.0897
5,GTCCTTTA,0.142
6,CGCGCCAG,0.104
7,GGCGGGAC,0.188
8,ACCTCGTC,-0.0708
9,ACGTAGAT,-0.0311
10,GATTCCAC,0.1
11,AGGACCAC,-0.134
12,CACAAAGA,-0.0857
13,GGCTTCGA,-0.0759
14,GGTGGAAA,-0.104
15,GTGCCTCA,-0.0701
16,GGATAATA,0.316
17,GTCGCAAC,-0.0824
18,CTAACATA,-0.0293
19,AAAGATTC,-0.0091
20,AAGGTGAC,-0.211
21,CACGCGGC,0.0138
22,CTCTGTTC,-0.0532
23,CTAGAAAA,0.143
24,CGATGGGC,-0.00861
25,CAATACTC,-0.0419

row,Sequence,PBM E-score
1,ATGAGCTC,0.0633
2,AAGGACAC,-0.109
3,ACTGTCGC,-0.0414
4,GGTAAAAA,0.14
5,TCTGATAA,-0.186
6,TATCCAAA,-0.184
7,GCTAAAGA,-0.0599
8,GAAGCTCC,0.158
9,CATACAGC,-0.216
10,CCCAAGCA,-0.138
11,GCTCCAGC,-0.135
12,GGGAGCAA,0.103
13,AGTCGTAA,0.134
14,GCCACGGC,0.0883
15,GGCACGGA,0.266
16,CTCTTGTA,-0.149
17,CCTCTCTA,-0.182
18,GGGTACAC,0.105
19,GCGCGTGA,-0.0758
20,AAAACCAC,0.0917
21,GACGCTTA,-0.235
22,ACACTAGG,-0.167
23,CTCCATAC,-0.0631
24,GAATCTAA,0.118
25,CATCCTAC,-0.206

row,Sequence,PBM E-score
1,AGCCACTG,-0.119
2,AAAGGAAT,0.00595
3,AGCTGGCC,-0.0691
4,GCGATTTA,-0.105
5,GATAGGGC,-0.0772
6,CCCCCGAA,0.297
7,GCCGGAAA,0.401
8,CTAAGGAG,-0.246
9,CCCGTATC,0.232
10,TAGTCACA,-0.159
11,GGTTGCAC,-0.084
12,GAGCCTCA,-0.256
13,ACGGCTAT,0.226
14,GGGCTCGA,-0.205
15,AAAATTGG,-0.215
16,CCGTTGTC,0.151
17,CTGGTTGC,-0.0148
18,GAATTAAC,0.0265
19,CAGTAGAC,-0.0882
20,GGTGGTTA,0.202
21,AACACAGA,-0.0514
22,CACGGCGC,0.0731
23,ACTCGGTA,0.322
24,AAGATCAG,-0.145
25,TAGCCCTA,-0.0989

row,Sequence,PBM E-score
1,CCTATTCG,0.0717
2,CGCGCAGC,-0.00067
3,CTCTGATA,-0.109
4,GAGCACGC,-0.0411
5,AAAGTCGA,-0.197
6,ACCGTCTA,0.053
7,AACACGCT,-0.031
8,AATCATAC,0.0264
9,CTGTGTCC,-0.253
10,CTTTTCTC,-0.21
11,ACTCTAGC,-0.253
12,ATAGAAAT,0.0639
13,CGACTATC,0.0582
14,ATCCCCAA,-0.223
15,TAGGGCGA,-0.254
16,CAAGTCTA,-0.0754
17,TAATGAGA,-0.143
18,CCTGGTCC,-0.116
19,CCCTCCGA,0.264
20,AGTGATTA,-0.0427
21,AATCTGAC,-0.203
22,CATACTTA,-0.179
23,GGCTCTCA,-0.0898
24,GCTTTGCA,-0.0503
25,CTGGCGCA,-0.219

row,Sequence,PBM E-score
1,CTTACGGC,0.0694
2,CCGTCCTC,0.207
3,AACCTTTA,-0.013
4,AAACCGGA,0.284
5,AACACCCC,0.0426
6,CTTTTAGA,-0.0842
7,CCAAGTAA,-0.146
8,GTGCCCAC,-0.134
9,CCCCCGCC,0.0528
10,GACACAGC,-0.135
11,GACGAGTA,-0.167
12,AGAGTTAT,-0.155
13,AGGGTGGA,-0.211
14,ACTTACGA,-0.00707
15,CAGTGTAG,-0.047
16,ATAACCTC,-0.00927
17,ATAGTATG,0.00469
18,CACCCGCC,0.311
19,TAGGAGGA,-0.193
20,CCCTGGCA,0.0575
21,ACCTCAAA,-0.0898
22,CGGGAAGC,0.299
23,GGAACTAC,0.0741
24,GAAAAACA,0.0163
25,ATATCAAC,-0.0196

row,Sequence,PBM E-score
1,GCTCACAA,-0.133
2,ATATATAT,0.164
3,CGTCCAAC,-0.124
4,CTAGGCTC,-0.143
5,ACCGCGTG,0.053
6,AAGACACA,-0.248
7,GTCCCGAA,0.406
8,ACCGGGTA,0.381
9,AAATATCT,0.0386
10,CAGCATGA,-0.235
11,CCATCATC,-0.0258
12,AACGCTAG,-0.0743
13,ACGTCTCT,-0.0846
14,CGATGTCA,-0.0953
15,TCCAGGCA,-0.203
16,AGAACGAG,-0.128
17,CCGAGCCA,0.407
18,AAGTGATC,-0.0657
19,CTCGGTCA,0.258
20,TCAGGAAA,-0.248
21,ATATTGGA,-0.0099
22,GATTACGC,-0.0242
